# Reference: PubChem BioAssay AID1259418 (Broad Institute, 2018)
# Hit rate of the full screen: of about 3,400 compounds, about 840 (25%) were called active. This list was built around the results that the source calls inconclusive (neither active nor inactive); the mix of calls is not that of the screen.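 How the source made its calls: active means fitted half-maximal concentration of signal decrease at or below twice the sample's top tested concentration; inconclusive means flat curve between -70 and -30 percent, or poor fit; inactive means flat within 30 percent, signal rise, or potency above limit.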
# Experiment: T. gondii growth inhibition with IFN-gamma, dose response, cell-based, ME49Luc, HeLa, luciferase, 72 h (AID 1259418)
# Settings: T. gondii ME49Luc in IFN-y HeLa, hits give low values, -100% = high-dose IFN-γ control wells; at 19.5 µM unless noted
row,Compound,max activity
1,O=C(C1CCOCC1)N1CC(=O)N2[C@H](C1)[C@@H](c1ccc(/C=C/c3ccccc3)cc1)[C@@H]2CO,inconclusive: 2.68% [at 10 µM]
2,COc1cccc(CC(=O)N2CCC3(CC2)Nc2ccc(Cl)cc2-n2cccc23)c1,inconclusive: -71.4% [at 2.6 µM]
3,COc1cccc(NC(=O)CN2CCC3(CC2)N=C(c2ccc(Cl)cc2)C(=O)N3)c1,inactive: -17.6% [at 1.35 µM]
4,Cc1ccc(Nc2ncnc3c2cnn3-c2ccccc2)cc1,inconclusive: 382%
5,Cc1ccc(-n2ncc3c(NC4CCCCCCCCCCC4)ncnc32)c(C)c1,inactive: 53.2% [at 10 µM]
6,CCOc1ccccc1-c1noc(-c2nnn(Cc3nc(-c4ccccc4OC)oc3C)c2C)n1,inconclusive: -31.2%
7,Cc1ccc(-c2coc(-c3ccc(NC(=O)c4ccccc4)cc3)n2)cc1,inconclusive: -55.4% [at 0.68 µM]
8,Cc1ccc(-c2coc(-c3ccc(NC(=O)NCc4ccc(F)cc4)cc3)n2)c(C)c1,inactive: -6.17% [at 0.16 µM]
9,COc1ccc(-c2nc(N(Cc3ccco3)C3CCCCC3)c3ccccc3n2)cc1,inactive: -11.5% [at 2.6 µM]
10,O=C(CCc1ccccc1)N1CCC2(CC1)Nc1cc(F)ccc1-n1cccc12,inconclusive: -64.6%
11,COc1ccc(C(=O)N2CCC3(CC2)Nc2ccc(C)c(C)c2-n2cccc23)cc1OC,inconclusive: -3.52% [at 10 µM]
12,CCOc1ccc(N(Cc2nc(-c3ccccc3OC)oc2C)S(=O)(=O)c2ccccc2)cc1,inconclusive: -25.5% [at 0.16 µM]
13,CN1C(=O)CCc2cc(NC(=O)c3cccc(F)c3)ccc21,inconclusive: 245%
14,Cc1cc(C)c(S(=O)(=O)N2CCC(C(=O)NCCc3csc(-c4ccccc4)n3)CC2)c(C)c1,inconclusive: 2.84%
15,Cc1cccc(-n2ncc3c(NC(C)(C)C)ncnc32)c1,inconclusive: 170% [at 10 µM]
16,CC(C)(C)C(=O)Nc1ccc(-c2nc(-c3ccccc3)co2)cc1,inconclusive: 205%
17,N#Cc1cccc(-c2ccc(C3[C@H]4CNC[C@@H]3N4Cc3cccc(-c4ccncc4)c3)cc2)c1 (some centres undefined),inconclusive: -31.9% [at 21 µM]
18,COc1cccc(CNc2nc(-c3ccc(Cl)cc3)nc3ccccc23)c1,inactive: -22% [at 1.35 µM]
19,Cc1ccc(CNC2=NCCNC23CCN(S(=O)(=O)c2ccc(C(C)C)cc2)CC3)cc1,inconclusive: -86.5%
20,Cc1ccccc1-c1ccc([C@H]2[C@H]3CN(S(=O)(=O)Cc4ccccc4)CCCCN3[C@H]2CO)cc1,inconclusive: -61%
21,Cc1cccc(-c2ccc(C3[C@@H]4CN(Cc5cccc(F)c5)C[C@H]3N4)cc2)c1 (some centres undefined),inconclusive: 37.1% [at 10 µM]
22,Clc1ccc(-c2nc(N3CCN(Cc4ccc5c(c4)OCO5)CC3)c3ccccc3n2)cc1,inactive: 21.6% [at 2.6 µM]

row,Compound,max activity
1,CN(C)c1cccc(C(=O)N2CSC[C@@H]2C(=O)NCCc2csc(-c3ccccc3)n2)c1,inactive: 9.09% [at 0.16 µM]
2,CC(C)(C)c1ccc(CSC2=Nc3ccccc3C3=NC(CC(=O)NCc4cccs4)C(=O)N23)cc1 (centres undefined),inconclusive: -59.4%
3,C(=C\c1ccc(C2[C@@H]3CN(Cc4ccc5c(c4)OCO5)C[C@H]2N3)cc1)/c1ccccc1 (some centres undefined),inconclusive: -72.7% [at 5 µM]
4,Cc1ccc(S(=O)(=O)N2CC[C@H]3[C@H](CO)Nc4ccc(-c5cccc(C(=O)N(C)C)c5)cc4[C@H]32)cc1,inconclusive: 32.2% [at 5 µM]
5,O=C(NCc1ccccc1)c1cc(-c2cnc(N3CCCC3)nc2)cn1CC1CC1,inconclusive: 17.4% [at 10 µM]
6,COc1ccc(OCC(=O)N2CCC(C(=O)NCCc3csc(-c4ccccc4)n3)CC2)cc1,inactive: 12.9%
7,COc1cccc(CNC(=O)N2CCc3nc(-c4ccccc4)sc3C2)c1,inactive: -15% [at 5 µM]
8,O=S1(=O)c2ccccc2OCC2(CCN(Cc3ccccc3)CC2)CN1CC1CC1,inconclusive: -32.9% [at 0.16 µM]
9,COC(=O)c1ccc(C)cc1NC(=O)Nc1ccc(-c2nc(-c3ccc(C)cc3C)co2)cc1,inconclusive: -7.28% [at 5 µM]
10,CCOc1ccc(-c2nc3c(s2)CN(S(=O)(=O)c2cccs2)CC3)cc1,inconclusive: 103%
11,CCOc1ccc(C(=O)N2CCC3(CC2)Nc2cc(OC)ccc2-n2cccc23)cc1,inactive: 8.9%
12,Cc1nc(OCC(=O)Nc2ccccc2)c2ccccc2n1,inactive: 12.4% [at 0.16 µM]
13,N#Cc1ccc(-c2ccc([C@@H]3[C@@H]4CN(Cc5cocn5)C[C@H]3N4)cc2)cc1,inconclusive: -47.8%
14,CC(C)C#Cc1ccc([C@H]2[C@@H](CO)N3C(=O)CN(S(=O)(=O)c4ccccc4)C[C@@H]23)cc1,inactive: 19.2% [at 10 µM]
15,Cc1ccc(Cn2c(CN3CCC(C(=O)NCc4ccccn4)CC3)cc3ccccc32)cc1,inconclusive: -43.9%
16,CCOc1ccccc1CNc1nc(-c2ccc(Cl)cc2)nc2ccccc12,inactive: 22.2%
17,Cc1ccc(-c2ccc([C@H]3[C@H](CO)N4C(=O)CN(C(=O)NC(C)C)C[C@@H]34)cc2)cc1,inconclusive: -27.4% [at 0.16 µM]
18,O=C(C1CCCCC1)N1[C@H](CO)[C@@H]2c3ccccc3N(S(=O)(=O)c3ccccc3)C[C@@H]21,inactive: 26.4%
19,O=C(Cc1ccccc1)N1CC(=O)N2[C@H](CO)[C@@H](c3ccc(-c4ccc(F)cc4)cc3)[C@@H]2C1,inconclusive: -49.8%
20,CCOc1ccc(N(Cc2nc(-c3cccc(C)c3)oc2C)S(=O)(=O)c2ccccc2)cc1,inconclusive: -87.4% [at 5 µM]
21,COc1cccc(NC(=O)CN2CCC3(CC2)N=C(c2cccc(Cl)c2)C(=O)N3)c1,inactive: -20.4% [at 0.68 µM]
22,COc1ccc(-c2nc(N3CCc4ccccc4C3)c3ccccc3n2)cc1,inconclusive: 66.1%
